Reference: patent US20240101686A1 (SIMCERE ZAIMING PHARMACEUTICAL, published 2024)
Like-named read-outs stand apart in the source and are kept apart here.

How the values were obtained:
[1] = biological target: T1, monkey EGFR protein (commercial, SB, catalog number 90285-C08H) (monkey); assay: ELISA, coated monkey EGFR protein, antibody 0.001 nM
T1 construct: Bought protein used to coat ELISA plates

[2] = biological target: T2, cynomolgus monkey EGFR on HEK293T-monkey EGFR cells (cynomolgus monkey, UniProt P55245 (rhesus entry)); assay: FACS, HEK293T-monkey EGFR cells (specificity assay)
[3] = biological target: T1, monkey EGFR protein (commercial, SB, …); assay: ELISA, coated monkey EGFR protein, antibody 1 nM
[4] = biological target: T1, monkey EGFR protein (commercial, SB, …); assay: ELISA, coated monkey EGFR protein, antibody 100 nM
[5] = biological target: T1, monkey EGFR protein (commercial, SB, …); assay: ELISA, coated monkey EGFR protein, antibody 0 nM (blank)
[6] = biological target: T1, monkey EGFR protein (commercial, SB, …); assay: ELISA, coated monkey EGFR protein, antibody 0.01 nM
[7] = biological target: T1, monkey EGFR protein (commercial, SB, …); assay: ELISA, coated monkey EGFR protein, antibody 10 nM
[8] = biological target: T1, monkey EGFR protein (commercial, SB, …); assay: ELISA, coated monkey EGFR protein, antibody 0.1 nM
[9] = biological target: T2, cynomolgus monkey EGFR on …; assay: FACS, HEK293T-monkey EGFR cells
[10] = biological target: T1, monkey EGFR protein (commercial, SB, …); assay: ELISA, coated monkey EGFR protein, antibody 0.0001 nM
monkey EGFR protein = biological target: T3, monkey EGFR protein (cynomolgus monkey, UniProt P55245 fragment (rhesus entry))
T3 construct: Bought protein (SB 90285-C08H); also called cynomolgus monkey EGFR

Her2 protein [11] = biological target: T4, Her2 protein (human, UniProt P04626 fragment)
T4 construct: Bought protein; also called human Her2 protein

Her2 protein [12] = biological target: T4, Her2 protein; remark: listed apart in the source
Her2 protein [13] = biological target: T4, Her2 protein; remark: listed apart in the source
Her2 protein [14] = biological target: T4, Her2 protein; remark: listed apart in the source
Her2 protein [15] = biological target: T4, Her2 protein; remark: listed apart in the source
Her2 protein [16] = biological target: T4, Her2 protein; remark: listed apart in the source
Her2 protein [17] = biological target: T4, Her2 protein; remark: listed apart in the source
Her2 protein [18] = biological target: T4, Her2 protein; remark: listed apart in the source

OD450 [1]	Max_MFI [2]	OD450 [3]	OD450 [4]	OD450 [5]	OD450 [6]	OD450 [7]	OD450 [8]	EC50 [9]	Max MFI [9]	OD450 [10]	Kd (monkey EGFR protein)	koff (monkey EGFR protein)	kon (monkey EGFR protein)	OD450 (Her2 protein [11])	OD450 (Her2 protein [12])	OD450 (Her2 protein [13])	OD450 (Her2 protein [14])	OD450 (Her2 protein [15])	OD450 (Her2 protein [16])	Binder	other results
0.17	6620	2.27	2.75	0.06	0.81	2.49	2.01	123 nM	9570	0.07										S008-NB148-52 VHH-Fc antibody (Fc fusion, VHH fused to human IgG1 hinge and Fc) EVQLVESGGGLVQAGGSLRLSCAASGFRIINDRMAWYRQAPGKQREAVASIDYAGSTTYAEFVKGRFTISRDNTKNMVTLQMNNLEPEDTAVYYCNTAPIARFRGQGTQVTVSS[human IgG1 Fc with changes not shown]	
											6.63 nM	0.000395 s⁻¹	59600 M⁻¹ s⁻¹	0.17	0.1	0.28	0.11	0.21	0.12	S008-NB148-52 (Fc fusion, Tested as VHH-Fc; order VHH-hinge-Fc inferred) EVQLVESGGGLVQAGGSLRLSCAASGFRIINDRMAWYRQAPGKQREAVASIDYAGSTTYAEFVKGRFTISRDNTKNMVTLQMNNLEPEDTAVYYCNTAPIARFRGQGTQVTVSS[human IgG1 Fc with changes not shown]	OD450 (Her2 protein [17]): 0.12; OD450 (Her2 protein [18]): 0.15
											2.11 nM	0.000154 s⁻¹	73000 M⁻¹ s⁻¹	0.16	0.1	0.14	0.1	0.16	0.08	S008-NB148-70 (Fc fusion, Tested as VHH-Fc; order VHH-hinge-Fc inferred) QVQLVESGGGLVQAGGSLRLSCAASEGTLSSEAMGWHRLAPGKQRESVGFISSGGSTNYRDSVKGRFTISRDNAKNTVYLQMNSLKPEDTGVYFCRIPNSVGPWGQGTQVTVSS[human IgG1 Fc with changes not shown]	OD450 (Her2 protein [17]): 0.15; OD450 (Her2 protein [18]): 0.09
0.1	5300	1.7	1.69	0.04	0.35	1.81	1.29	1.1 nM	16500	0.04										S008-NB149-1 VHH-Fc antibody (Fc fusion, VHH fused to human IgG1 hinge and Fc) EVQVVESGGGTVQAGGSLRLSCAASARTFANAHMAWFRQAPGKEREFLAAITWSGGITDYANSVKGRFTISRDNAENAMYLQMNSLKPEDTAIYICAVDTTSAYDQLWSRQSEYEYWGQGTQVTVSS[human IgG1 Fc with changes not shown]	
0.22	9960	2.27	2.43	0.06	0.97	2.26	1.93	27.9 nM	17000	0.08										S008-NB149-20 VHH-Fc antibody (Fc fusion, VHH fused to human IgG1 hinge and Fc) EVQVVESGGGLVQPGGSLRLSCAASGSGFTINAMTWYRRAPGKERELVAIITNGGITNYADSVKGRFTISRDNAKSTVYLQMDGLEPEDTAVYYCNIVPPVYWGQGTQVTVSS[human IgG1 Fc with changes not shown]	

Second part, the binder before the results:

Binder	OD450 [1]	Max_MFI [2]	OD450 [3]	OD450 [4]	OD450 [5]	OD450 [6]	OD450 [7]	OD450 [8]	EC50 [9]	Max MFI [9]	OD450 [10]	Kd (monkey EGFR protein)	koff (monkey EGFR protein)	kon (monkey EGFR protein)	OD450 (Her2 protein [11])	OD450 (Her2 protein [12])	OD450 (Her2 protein [13])	OD450 (Her2 protein [14])	OD450 (Her2 protein [15])	OD450 (Her2 protein [16])	other results
S008-NB148-70 VHH-Fc antibody (Fc fusion, VHH fused to human IgG1 hinge and Fc) QVQLVESGGGLVQAGGSLRLSCAASEGTLSSEAMGWHRLAPGKQRESVGFISSGGSTNYRDSVKGRFTISRDNAKNTVYLQMNSLKPEDTGVYFCRIPNSVGPWGQGTQVTVSS[human IgG1 Fc with changes not shown]	0.14	8500	2.5	2.74	0.06	0.67	2.61	2.09	2.13 nM	12000	0.06										
S008-NB149-2 VHH-Fc antibody (Fc fusion, VHH fused to human IgG1 hinge and Fc) QVQLVESGGGLVQPGGSLRLSCAASGFSLDAYAIGWFRQAPGMGREGVSCISSAGNTDYADSVKGRFAISRDNAKNTVYLQMNSLKPEDSGVYYCARTSEGVYRGRLACALYESAADFRSGGQGTRVTVSS[human IgG1 Fc with changes not shown]	0.1	1330	2.15	2.67	0.08	0.43	2.3	1.63	174 nM	1370	0.06										
S008-NB149-2 (Fc fusion, Tested as VHH-Fc; order VHH-hinge-Fc inferred) QVQLVESGGGLVQPGGSLRLSCAASGFSLDAYAIGWFRQAPGMGREGVSCISSAGNTDYADSVKGRFAISRDNAKNTVYLQMNSLKPEDSGVYYCARTSEGVYRGRLACALYESAADFRSGGQGTRVTVSS[human IgG1 Fc with changes not shown]												7.95 nM	0.000482 s⁻¹	60600 M⁻¹ s⁻¹	0.21	0.14	0.12	0.22	0.18	0.08	OD450 (Her2 protein [17]): 0.14; OD450 (Her2 protein [18]): 0.19
S008-NB149-60 VHH-Fc antibody (Fc fusion, VHH fused to human IgG1 hinge and Fc; also called S008-NB149-0) QLQLVESGGGLVQPGGSLRLSCAASRSISSINTMTWYRYQGPGKERELVALITLGGTTNYADSVKGRFTISRDDAKNTLYLEMNSLKPEDTAVYYCNAVPPFRWGQGTQVTVSS[human IgG1 Fc with changes not shown]	0.15	8310	2.2	2.47	0.06	0.73	2.35	1.82	2.68 nM	14100	0.06										
S008-NB149-1 (Fc fusion, Tested as VHH-Fc; order VHH-hinge-Fc inferred) EVQVVESGGGTVQAGGSLRLSCAASARTFANAHMAWFRQAPGKEREFLAAITWSGGITDYANSVKGRFTISRDNAENAMYLQMNSLKPEDTAIYICAVDTTSAYDQLWSRQSEYEYWGQGTQVTVSS[human IgG1 Fc with changes not shown]												5.46 nM	0.000649 s⁻¹	119000 M⁻¹ s⁻¹	0.15	0.13	0.13	0.16	0.23	0.09	OD450 (Her2 protein [17]): 0.07; OD450 (Her2 protein [18]): 0.09
S008-NB148-10 (Fc fusion, Tested as VHH-Fc (vector BI3.4-huIgG1, HEK293E); also called S00N-NB1 48-10) QVQLVESGGGLVQAGGSLRLSCAAFISTFGRTDMTWYRQRSGNEREFVARISSGGSTIYADSAKGRFTISRDNVKNTVYLQMNSLTPEDTAVYYCNTVPPRGSWSQGTQVTVSS[human IgG1 Fc with changes not shown]												10.6 nM	0.000639 s⁻¹	60400 M⁻¹ s⁻¹	0.25	0.08	0.13	0.15	0.1	0.13	OD450 (Her2 protein [17]): 0.11; OD450 (Her2 protein [18]): 0.09
